Source: the supplement of paper PMC11417369
± gives the standard deviation of the averaged measurements. Some of the results follow.

System: PfAP2-LT AP2 domain (GST-tagged)
Assay: gcPBM binding intensity (ln(normalized median fluorescence intensity)); higher = stronger DNA binding
Procedure, shortened: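 The binding buffer was 1× PBS containing 1% milk, 0.2 mg/ml BSA, 0.5% salmon testes DNA and 0.03% Triton X-100. In it, GST-tagged P. falciparum DNA-binding domains expressed in E. coli were applied for 1 h to an Agilent 4 × 180k array of primer-extended double-stranded 36-bp intergenic genomic probes plus negative controls. Binding intensity, read with Alexa488 anti-GST antibody and a 488 nm scan, is the highest Masliner-normalised natural-log median intensity across replicate spots of either probe orientation.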

| Sequence | gcPBM binding intensity (ln) |
| --- | --- |
| TTATATATGACTAACGGTTTTTTTTTTTTTTTTTTT [CACACA_negctrl_site576] | 8.79 ± 0.28 |
| ATTGAGAGAAAAAAATGTACTTGATCAAAATGGATA [XGTACX_site1649] | 8.73 ± 0.52 |
| TAATATCAATTTTTATGTACTTATATATATATATAT [XGTACX_site5879] | 8.94 ± 0.37 |
| AGTAGTCTGGAGAAGAGTACACAGTATCTGGTAACA [XGTACX_site2032] | 8.71 ± 0.52 |
| AATATATATTAAATATGTACTTATTTTTTGGTTGCT [XGTACX_site3613] | 8.76 ± 0.52 |
| AAAGAATAATTAAATACACACATATTACAGTAAAAA [CACACA_site2450] | 9.02 ± 0.41 |
| ACAAAAAAAAAAAAAAAAAAAAAAAAAAAATAATAA [CACACA_negctrl_site1640] | 8.37 ± 0.54 |
| AAAATATATTAAGGCACACACATACATATTTATATA [CACACA_site7707] | 9.29 ± 0.4 |
| AGATCAATAATGACAAGTACACAAAATAACATTTAA [XGTACX_site6968] | 8.99 ± 0.57 |
| ATTTTGTAAAAGGTCATACACACATATTCAAAAGAA [CACACA_site2946] | 8.84 ± 0.35 |
| TGTACACCCAGAAATGCACACACATATATATATATA [CACACA_site8716] | 9.94 ± 0.29 |
| TGTACAGTATATACAACACACATTTGTATAAATATA [CACACA_site1002] | 9.29 ± 0.52 |
| TGCATAATTAAAAATGGTACACTGTATTTATAATAT [XGTACX_site1575] | 8.72 ± 0.42 |
| TATAAATTAAGATAACGTACATATAATAATATAAAC [XGTACX_site487] | 8.95 ± 0.49 |
| AATAGAGTTGAATGCACACATACAAATTTTTAGTTT [CACACA_site3564] | 9.05 ± 0.51 |
| TATATATATTTTATGTGTACTCAATGTTATAACGCA [XGTACX_site8360] | 8.64 ± 0.48 |
| ATAATATATATATATACGCACACTTATGTACGGATT [CACACA_site2120] | 9.1 ± 0.38 |
| AACAATGTTTTCTTGTGTACACATCATTAAAGAAAA [XGTACX_site4726] | 8.6 ± 0.35 |
| TTCTATATAATTCAAACATGCACAGGAAATATTATA [TGCATGCA_site290] | 8.48 ± 0.28 |
| TATGTAACACATACTTGTACATATATAATTTTTTTA [XGTACX_site6251] | 8.54 ± 0.46 |
| AAGAAAAAAGGGGACAAGGCATATCTATATATACAT [TGCATGCA_negctrl_site172] | 8.97 ± 0.58 |
| ATACATATATATATATGTACATATGCACATATATAC [XGTACX_site7209] | 9.02 ± 0.34 |

| Sequence | gcPBM binding intensity (ln) |
| --- | --- |
| TATTGTATGGTAGGATATGATGTTATTTGTTATAAT [CACACA_negctrl_site202] | 8.78 ± 0.33 |
| TCTTTTGCCCAAAAAGGTACACACCACAATTTAAAT [XGTACX_site1482] | 8.71 ± 0.3 |
| ATATATATATCACGCACACACGAATTTTAAATATAT [CACACA_site5691] | 9.43 ± 0.32 |
| TTATTTTTACAATTTTAATAATAATACTAAAACAAA [XGTACX_negctrl_site538] | 7.98 ± 0.42 |
| AATATATTATAATATACACACATATATGCTCTTTAA [CACACA_site4131] | 9.02 ± 0.38 |
| ATTTAAAAGAAATAATGTACGAATCATATTTGATAT [XGTACX_site1785] | 8.69 ± 0.49 |
| ATATATTATATATATTTTAAGTAATTTGCAAAAAAT [GTGCAC_negctrl_site361] | 8.36 ± 0.36 |
| ATAAGAAAAGGACACACACACAAAAAAAAAAAAAAA [CACACA_site7351] | 9.48 ± 0.51 |
| TTTATTTATTATTGTTGTACACTTTTTATAAAAAAA [XGTACX_site5114] | 8.57 ± 0.53 |
| ATGTATATAATATTATGTACATATATGAAATATTTT [XGTACX_site8168] | 8.87 ± 0.38 |
| TAGTTTTTTATAAAATTATTTATATAAAGGTAAAAA [CACACA_negctrl_site490] | 8.07 ± 0.47 |
| TATATTTGTAAGAAGAGTACTAAAAAAAGAATAAAG [XGTACX_site8704] | 8.62 ± 0.49 |
| TTCCCTAATATTTGTTGTACTTGTTATATTTTTTTT [XGTACX_site5994] | 8.97 ± 0.57 |
| ATATATATATATATATGTACGTACTCAGTTATGCCT [XGTACX_site453] | 10.2 ± 0.29 |
| ATTTATTAACCATATACACACATATATTTGTATTTA [CACACA_site6744] | 9.06 ± 0.35 |
| ATAGTATCTGGTAGCTGTACGAGTCGTAGAGTGCAG [XGTACX_site2020] | 8.98 ± 0.49 |
| TATTGTATTTAATAAACACACAATATTAAAAATATA [CACACA_site4725] | 8.61 ± 0.42 |
| CATATATACACATACACACACACACGGACACGCACA [CACACA_site6910] | 10.07 ± 0.085 |
| ATACACATATATGTGTGTACTCACCTTTTAATATGA [XGTACX_site4349] | 9.19 ± 0.37 |
| GATTTACAACACGAACGTACAGAACAAAAAGGAAAA [XGTACX_site6501] | 8.88 ± 0.45 |
| GTATCTCATTATTCGTGTACTAAACACATAAAAATA [XGTACX_site2262] | 8.6 ± 0.38 |
| ATCTATATCTATAATACACACTAAAGTAACAGAATA [CACACA_site7370] | 8.8 ± 0.37 |

| Sequence | gcPBM binding intensity (ln) |
| --- | --- |
| TGTTTAAAGGAAAAGGAGTAGTCTATTATATTATCT [CACACA_negctrl_site858] | 8.46 ± 0.4 |
| TATAAAAATAAAAAAAGTACACATAAAAATATATAT [XGTACX_site5189] | 8.86 ± 0.51 |
| AATGTAAAAGTAAACACACACATATATATATACATA [CACACA_site2484] | 9.49 ± 0.38 |
| AACATTTATAAATATTGTACATATAGATTTATATAT [XGTACX_site2662] | 8.72 ± 0.47 |
| AACAATATATTGAATAGTACATATATATAAACATAT [XGTACX_site2811] | 8.94 ± 0.44 |
| AAAATAAAATAACGTTGTACAACATCATTTCTATAT [XGTACX_site5080] | 8.71 ± 0.4 |
| TCTTTCTTATATTTATATAATTATATTTATTTTATA [GTGCAC_negctrl_site300] | 8.79 ± 0.53 |
| TTTAATTTGTTATACACACACAAAAAAAGTTATAAA [CACACA_site7779] | 8.97 ± 0.47 |
| GGAATACAGGAAAAAAGTACAGAAAATGGAATATTA [XGTACX_site5053] | 8.88 ± 0.57 |
| ATATAATGTTATAGAAGTACATGAAATACTTATTTA [XGTACX_site8850] | 8.65 ± 0.5 |
| CATATAAAAAGACACACACACACATATATATATATA [CACACA_site940] | 9.92 ± 0.31 |
| TTTTTTTTTCCCGTAAATATTGAGACAACCATAATG [CACACA_negctrl_site41] | 8.4 ± 0.4 |
| TTAAAAATATATATAACACACACATAATATATATAT [CACACA_site8811] | 9.32 ± 0.16 |
| TATTTTTATTTAGGACGTACAAAAATAAATCATATT [XGTACX_site1448] | 8.51 ± 0.44 |
| TATAAATATTACGGTAGTACTATACATATATATAAT [XGTACX_site7442] | 8.86 ± 0.36 |
| TCCTTATATTTGCACACACACACAAGAAAATGAAAA [CACACA_site6613] | 9.71 ± 0.28 |
| TTAGAAACATTGAAAGCATGCAATATTACTTTATAC [TGCATGCA_site522] | 8.82 ± 0.28 |
| TATATAATATAATTGACATGCAACCATTTTCGTGAA [TGCATGCA_site458] | 8.66 ± 0.4 |
| TCATTCATATGTTACACACACACACGCACATAAAAA [CACACA_site7514] | 9.78 ± 0.22 |
| AAGTTGGAAAGGTTATGTACTTATTTTTTAAAATAA [XGTACX_site204] | 8.34 ± 0.44 |
| TAACCATACATACATACACACACACCCACATATATA [CACACA_site8951] | 9.95 ± 0.13 |
| ATAAAAAACTCAGAGCGTACATAATTTTTTCTATTT [XGTACX_site2803] | 8.66 ± 0.47 |

| Sequence | gcPBM binding intensity (ln) |
| --- | --- |
| TATATATTCAAATGTGCATGTAAAAAAAAAAAAAAG [TGCATGCA_site126] | 8.67 ± 0.55 |
| CAGGAGAGTAAAAGAGTGCGAATTATTATTTTGGAG | 8.77 ± 0.51 |
| AGACATTAATGAAGGTGTACATATATTTGACAGAAT [XGTACX_site655] | 9.13 ± 0.41 |
| TCCCTAGTATACCTTAGTACATATATTATTTTGCAC [XGTACX_site2174] | 9.09 ± 0.37 |
| GGCATATATATATGCACACATACATAAATACATGTG [CACACA_site5999] | 9.85 ± 0.41 |
| AAAATAATTATGAATTGTACAGGTTTTTTTTTTTTT [XGTACX_site220] | 8.59 ± 0.35 |
| GGAAAAAAAAAAAAAAAACACACGGTACATTCAAAC [CACACA_site2715] | 8.96 ± 0.47 |
| AAAAAATTTTTAAGCACACACATAGATAATATATAT [CACACA_site1555] | 9.14 ± 0.4 |
| TCTACAATTATAATTACACACTATAAAAAAGAAAGA [CACACA_site2984] | 8.69 ± 0.42 |
| ATTTTTTTTTTTTTTTTTTTTTTTTTTTGATTTGTG [CACACA_negctrl_site1391] | 8.51 ± 0.66 |
| AAAAATAGGAACCAATATCCAACGTGACTTTATAAT [CACACA_negctrl_site1011] | 8.95 ± 0.47 |
| TACAATCTAAAATACACACACACAAACATATATTTA [CACACA_site3702] | 9.85 ± 0.38 |
| AATAAATAAATATATACACACATATATATATAATAT [CACACA_site921] | 9.02 ± 0.41 |
| TGAAAAAATATAAAATATAAAATAAAAAATATAAAA [GTGCAC_negctrl_site536] | 8.6 ± 0.49 |
| AAGATATATATAGAAAGTACTTATATTTGTATAATT [XGTACX_site8855] | 8.74 ± 0.47 |
| ATATTAATATATATGTTTTATTACCATTTTATGTAT [CACACA_negctrl_site1761] | 8.86 ± 0.47 |
| TATAAAAATATATTTACACACTATATATATCGAAAG [CACACA_site1700] | 8.72 ± 0.36 |
| ATGGTTTAGTTATATACACACTCGAAAATAACGACA [CACACA_site7520] | 8.82 ± 0.26 |
| ATATATTTTCAAAAAAGTAAATCAAAATAAATATAT [TGCATGCA_negctrl_site319] | 8.5 ± 0.37 |
| TCCAAATACAACTACACACAAACAAAAATTATATAT [CACACA_site881] | 9.3 ± 0.42 |
| TTTTTTTTAAGAGATAGTACATAAATATTATAATAT [XGTACX_site4685] | 8.25 ± 0.44 |
| AAAATTTTTCTTAAAGCATGCACAATTAAGAAGACG [TGCATGCA_site883] | 8.71 ± 0.35 |
